Data: a collection of fitness landscapes (doi:10.1016/j.celrep.2020.107928)
The full ranking holds about 81,000 sequences; the median of “one-hybrid fitness for binding NBS DNA” is about -0.1, and the highest 2% start at about 0.36. The list shows a part of the results.

B1: Caulobacter ParB omega fusion; a variant is named by its letters at X, in order, B8GW30 (parent)
chain: MESVVVGEPGMSEGRRGLGRGLSALLGEVDAAPAQAPGEQLGGSREAPIEILQRNPDQPRRTFREEDLEDLSNSIREKGVLQPILVRPSPDTAGEYQIVAGERAWRAAQRAGLKTVPIMVRELDDLAVLEIGIIENVQRADLNVLEEALSYKVLMEKFERTQENIAQTIGKSXSHVANXMRLLXLPDEVQSYLVSGELTAXHARAIAAAADPVALAKQIIEGGLSVRETEALARKAPNLSAGKSKGGRPPRVKDTDTQALESDLSSVLGLDVSIDHRGSTGTLTITYATLEQLDDLCNRLTRGI

Variants of: B1
Experiment: one-hybrid fitness for binding NBS DNA (the Noc-binding site; scaled: cognate 1, non-cognate 0); higher = stronger binding
Details: with NBS DNA site
Summary of the method: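 Selection: bacterial one-hybrid in E. coli USO, HIS3 reporter with the site 19 bp from the promoter, 48 hours at 37°C on M9-minus-histidine plus 0.1 mM IPTG and 5 mM 3-AT. Libraries were Caulobacter ParB with four randomised specificity codons, sequenced on Illumina before and after selection. Fitness is the rescaled log change in variant-to-wild-type read ratio, anchored to the cognate and non-cognate sites.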

one-hybrid fitness for binding NBS DNA, 0.243:
RIVT

one-hybrid fitness for binding NBS DNA, 0.25:
QRMF

one-hybrid fitness for binding NBS DNA, ≤ 0.2:
KCHT
HWLR
RFNY
AASQ
YLAG
YYAG
AMGL
CVWT
MIQG
DRNV
DASD
KSDG
DRFC
NIQG
HLKC
TAAH
TITT
LWPL
QYTE
TRLA
RWLE
SSNK
FFPR
NNYQ
CPYA
LGGS
ADRM
VMLI
NVYN
NTYV
ISII
RNEH
TPKV
FHMS
NRWS
TWDR
LREI
PSLH
DIDV
RVWE
KYAF
CLES
CGAL
KYGG
RHSV
PVNT
MYIP
SPPC
SSYR
PGPG
DAMS
VQVL
GKQG
PVVS
QGRD
RDNL
KQNL
ICGA
PIRC
TVHG
AHWW
PYYL
LARA
CFFG
IRYM
QDSW
WVEG
NMVG
KMYG
LSRW
KRIH
PTEL
ELTK
ASPD
VALM
NYTH
WILS
HLAY
CKKS
KKQG
TKMC
KFIS
RSIQ
CMIS
VTRV
LQTY
PNHT
WDRL
GVET
YGSV
PNWS
LGNV
MNLL
PTCF
HDLR
GPAV
PYPK
RMMC
STTW
FNAS
VRFG
NGGR
PEAL
CTYR
QNHP
ATDG
CANT
AILM
SSDL
PKTQ
SEAF
DIKT
RNVR
FSWS
RRMI
TSRC
RQLP
VTYG
RQDE
TEGG
ACAC
WRNN
CTHN
PVLQ
HGIL
HTPR
RQIW
KPKC
IPGL
FLRI
LMKI
CYHW
RQLM
PEPS
LKNY
LCTR
PCAC
LIRR
KGWS
MRTL
RDRW
AWHA
ANSC
NPAA
TWWG
RWDF
NHTL
FGYR

one-hybrid fitness for binding NBS DNA, 0.615:
RIRT

one-hybrid fitness for binding NBS DNA, 0.421:
QQRQ

one-hybrid fitness for binding NBS DNA, 0.535:
QSQR
